From paper PMC4336329 (PLoS ONE, 2015)
Among all 310,000 compounds or so, about 14,000 (4.5%) showed an effect of 50% or more. The effect is printed as a negative number. This is one part of the list.

The molecules below were run against human ether-à-go-go-related gene (hERG) potassium channel (human, UniProt Q12809) (assay: primary screen, population patch clamp on CHO cells stably expressing hERG).
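Also: peak tail current of the secondary pulse compared with the same well before compound.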

human ether-à-go-go-related gene (hERG) potassium channel, sequence (Q12809 whole entry, looked up): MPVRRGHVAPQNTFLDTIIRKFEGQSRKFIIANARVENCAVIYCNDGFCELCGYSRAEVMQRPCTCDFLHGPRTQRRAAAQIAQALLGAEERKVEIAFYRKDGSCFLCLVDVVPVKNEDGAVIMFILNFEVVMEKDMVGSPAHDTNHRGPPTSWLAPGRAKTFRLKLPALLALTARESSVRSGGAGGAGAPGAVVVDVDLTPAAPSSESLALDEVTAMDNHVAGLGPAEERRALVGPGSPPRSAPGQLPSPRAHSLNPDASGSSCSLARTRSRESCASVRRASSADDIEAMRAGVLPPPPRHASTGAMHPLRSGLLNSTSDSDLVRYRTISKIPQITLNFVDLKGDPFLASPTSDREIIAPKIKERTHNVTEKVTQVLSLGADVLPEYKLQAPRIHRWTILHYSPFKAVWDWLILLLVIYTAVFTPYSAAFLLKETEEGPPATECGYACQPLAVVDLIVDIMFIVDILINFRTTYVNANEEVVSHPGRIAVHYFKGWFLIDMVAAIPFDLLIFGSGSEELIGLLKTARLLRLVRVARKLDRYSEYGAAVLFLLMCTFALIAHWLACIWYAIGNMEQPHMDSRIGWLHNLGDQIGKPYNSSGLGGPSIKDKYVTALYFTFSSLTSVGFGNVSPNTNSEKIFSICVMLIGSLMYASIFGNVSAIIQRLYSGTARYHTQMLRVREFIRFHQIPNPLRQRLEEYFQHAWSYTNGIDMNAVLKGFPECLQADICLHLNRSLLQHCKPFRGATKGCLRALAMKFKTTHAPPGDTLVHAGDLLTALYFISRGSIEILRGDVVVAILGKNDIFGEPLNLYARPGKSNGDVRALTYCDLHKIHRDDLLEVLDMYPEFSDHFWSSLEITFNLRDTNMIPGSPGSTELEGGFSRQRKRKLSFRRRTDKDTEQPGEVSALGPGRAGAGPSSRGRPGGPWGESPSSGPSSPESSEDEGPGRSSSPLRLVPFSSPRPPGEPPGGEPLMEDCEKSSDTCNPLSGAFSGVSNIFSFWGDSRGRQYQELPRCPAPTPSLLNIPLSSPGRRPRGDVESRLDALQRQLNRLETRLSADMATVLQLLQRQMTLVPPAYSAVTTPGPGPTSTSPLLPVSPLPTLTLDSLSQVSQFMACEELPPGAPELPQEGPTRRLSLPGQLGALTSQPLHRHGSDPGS

SMILES	hERG current change (%, negative = inhibition) at 10uM [%]
O=C(O)/C=C\c1cccc(-n2nnnc2SCc2ccccc2F)c1	21.5
O=C(Nc1ccc(Br)cc1)c1ccccc1CC[N+](=O)[O-]	1.01
O=C(CCc1nnc2n(Cc3ccc(Cl)cc3)c(=O)c3ccccc3n12)N1CCN(c2ccccn2)CC1	-57
Cc1ccccc1-c1nn(-c2ccc(F)cc2F)cc1CNCCN(C)C	-12.1
COc1ccc(C(CNC(=O)C(=O)Nc2ccc3c(c2)OCO3)N2CCN(C)CC2)cc1 (stereo not drawn)	-50.9
CCOc1cc(NC(=S)Nc2cccc(OC)c2)c(OCC)cc1NC(=O)c1ccc(C)cc1	1.37
O=C(Nc1ccc(N2C(=O)C3CCCCC3C2=O)cc1Cl)c1cccs1 (stereo not drawn)	27.1
O=C(NCc1ccc2c(c1)OCO2)c1c(Cl)cccc1Cl	8.6
CN1CC(=O)N(CC(=O)Nc2ccc(Cl)c(C(F)(F)F)c2)C1=O	8.97
CCN(CC)S(=O)(=O)c1cccc(C(=O)NCc2ccccc2)c1	-26.8
CC(=O)NCCCNc1ccc([N+](=O)[O-])cc1	-14.1
COCCNC(=O)CSc1cc(=O)n(C)c2cc(Cl)ccc12	2.04
COc1cc(OC)cc(-n2nc(C(=O)N3CCC4(CC3)OCCO4)c3ccccc3c2=O)c1	1.3
Cc1nc2nc(SCC(=O)Nc3cccc(F)c3)[nH]c2cc1Br	23.2
COC(=O)/C=c1/s/c(=C(/C#N)C(=O)NCc2ccccc2)n(-c2ccccc2)c1=O	-12.6
O=C(COC(=O)/C=C/c1ccco1)Nc1ccc(F)cc1Cl	19.1
COc1ccc2[n-]c(S(=O)Cc3ncc(C)c(OC)c3C)nc2c1.COc1ccc2[n-]c(S(=O)Cc3ncc(C)c(OC)c3C)nc2c1.[Mg+2] (stereo not drawn) [49665950]	16.3
O=C(CN1CCN(S(=O)(=O)c2ccc3ccccc3c2)CC1)Nc1ccc2c(c1)CCC2	11.3
CCc1nnc(NC(=O)c2ccc(S(=O)(=O)N3CCCCCC3)cc2)s1	6.4
COc1ccc(Br)cc1C1N2CC3(C)CN1CC(C)(C2)C3=O (stereo not drawn)	-1.65
CCOC(=O)c1ccc(NC(=S)N2CCCC2c2ccc(OC)c(OC)c2)cc1 (stereo not drawn)	8.38
COc1ccc(CCN(C)Cc2ccc(F)cc2F)cc1OC	-0.788

SMILES	hERG current change (%, negative = inhibition) at 10uM [%]
CCN1CCN(CCCNC(=O)C(=O)c2c(C)[nH]c3ccccc23)CC1	3.67
C=CCN(c1ccc(F)cc1)S(=O)(=O)c1cc(C(=O)NC2CCC(O)CC2)ccc1Cl (stereo not drawn)	-39.4
Cc1ccc(-c2cc(C(=O)[O-])c3cc(Br)ccc3n2)s1.[K+]	22.1
COC(=O)c1c(NC(=O)c2cnccn2)sc2c1CCC2	16.9
Cc1[nH]n(-c2ccc(F)cc2)c(=O)c1C=Nc1ccc(S(=O)(=O)N(C)C)cc1	5.26
Nn1c(C2COc3ccccc3O2)n[nH]c1=S (stereo not drawn)	7.74
Cc1cc(C)n(C2=NS(=O)(=O)c3ccccc32)n1	13.9
Cc1cc2cc(CNC(=O)Nc3ccccc3)ccc2[nH]1	6.64
CCCC(=O)NCCSC	12.8
CC(C)CNS(=O)(=O)c1ccc(CC(C)C)cc1	-2.9
C=CCN(c1ccccc1C(=O)O)S(=O)(=O)c1ccc(C)cc1	18.6
COc1ccc(C[C@H]2CN3C(=NC[C@@H]3Cc3ccc(O)cc3)N2C[C@H](C)NC(=O)CCC2CCCCC2)cc1	-66.1
O=C(CCCc1ccccc1)NCCCN1CCOCC1	6.76
Cl.O=C(CN1CCN(C(=O)c2cccs2)CC1)NC1CCCCC1	-1.7
CC(C)c1ccc(N2CCN(C(=O)c3ccccc3NC(=O)/C=C\C(=O)O)CC2)cc1	5.25
Fc1ccc(CNCc2ccco2)cc1	11.5
COc1cccc(C(=O)C2CCCN(Cc3ccccn3)C2)c1 (stereo not drawn)	-26
C=CCN1C(=O)/C(=C\c2cccs2)C(C(=O)OC)=C1C	9.05
Cn1c(=O)cc(OCC(=O)NCCCN2CCN(Cc3ccccc3)CC2)c2ccccc21	-17.8
CN1CCN(c2ccc(Cl)cc2NC(=O)c2cc(=O)[nH]c3ccccc23)CC1	-31.4
Cc1nnc(SC(C)C(=O)Nc2ccc(Cl)cn2)n1Cc1ccccc1 (stereo not drawn)	-17.3
CN1CCC(OC(=O)c2cccc(Cl)c2)CC1.Cl	-8.64

SMILES	hERG current change (%, negative = inhibition) at 10uM [%]
COc1cc(OC)cc(C(=O)N[C@H](C(=O)NCc2ccc(F)cc2)C(C)C)c1	-2.58
CC(C)OC(=O)Cc1nc2sc(-c3ccccc3)cc2c(=O)[nH]1	15.7
O=C(O)C(c1ccccc1)N1C(=O)c2cccc3cccc(c23)C1=O (stereo not drawn)	5.72
O=C(/C=C/c1ccccc1)NNC(=O)c1cccnc1	18.9
Cc1c(Cc2ccccc2)c(=O)oc2cc(OCC(=O)N[C@@H](Cc3ccccc3)C(=O)O)ccc12	-1.27
O=C(NCc1ccco1)c1ccc2ccccc2n1	4.89
C=CCc1cc(C(=O)N2CCCCC2)ccc1O	15.1
Cc1ccc(S(=O)(=O)NCC(=O)N/N=C/c2ccc(Cl)cc2)cc1	-3.55
O=c1c2sccc2n(Cc2ccc(F)cc2)c(=O)n1-c1ccc(F)cc1	8.94
O=C(CN1C(=O)/C(=C/c2ccccc2)SC1=S)N1CCN(CCc2ccccn2)CC1	-15.7
CCn1cc(C(=O)NC2CCCCCC2)c(=O)c2ccc(C)nc21	-4.88
CN(C(=O)COC(=O)/C=C/c1cccc([N+](=O)[O-])c1)C1CCS(=O)(=O)C1 (stereo not drawn)	18.7
COc1ccc(-c2csc(NC(=O)C3CCCCN3S(=O)(=O)c3ccccc3)n2)cc1 (stereo not drawn)	-1.79
CCC1CCCCN1CCCNC(=O)c1ccc2c(c1)N(Cc1c(F)cccc1Cl)C(=O)CS2 (stereo not drawn)	-7.86
CCN(CC)CCCN1C=C2C(=O)C(C)(OC(=O)C3CCCC3)C(=O)C=C2C=C1c1ccsc1 (stereo not drawn)	-34.3
C#CCOCCOCCOCCNc1nc(N2CCOCC2)nc(N2CCN(C(=O)[C@H]([C@@H](C)CC)n3cc(CCCC[NH3+])nn3)CC2)n1.[Cl-]	13.6
COc1cccc(CN2CCN(Cc3ccc(OC)c(OC)c3)CC2CCO)c1 (stereo not drawn)	-27.2
CCOc1cc(/C=N/NC(=O)c2c(-c3ccccc3)noc2C)ccc1O	3.14
NC(=O)C1CCN(/C=C2\C(=O)NC(=O)N(Cc3ccco3)C2=O)CC1	6.74
COC(=O)c1c(NC(C)=O)sc(C(=O)Nc2ccccc2)c1C	52.7
CC(=O)COC(=O)c1ccc2noc(-c3ccccc3)c2c1	-6.51
O=C(CSc1nnc(CNc2ccc(F)cc2)n1Cc1ccco1)N1CCOCC1	-31

SMILES	hERG current change (%, negative = inhibition) at 10uM [%]
O=C(N/N=C/c1c(F)cccc1Cl)C1CC1	13.4
CN(C(=O)Cn1nc(C(=O)O)c2ccccc2c1=O)C1(C#N)CCCCC1	7.82
CC(C)(CNC(=O)Cc1ccc(Br)cc1)N1CCOCC1	8.38
C=CCNC(=O)CN1CCC(NC(=O)c2ccco2)CC1	5.89
CCCCCC(=O)Nc1ccc(-c2csc(C)n2)cc1	18.7
CC1(C)CN(c2ccccc2)N(C(=O)c2ccc(C#N)cc2)C1=O	-16.8
CC(C)CC(=O)NC(=S)Nc1sc2c(c1C(N)=O)CCC2	15.7
CCCCC/C=C/C1=CC(=O)C[C@H](c2ccc(OC)c(OC)c2)C1	10.8
CC1=NN(c2ccc(C)cc2C)C(=O)C1C(c1ccccc1O)C1C(=O)N(c2ccc(C)cc2C)N=C1C (stereo not drawn)	13.2
CCOc1ccc(S(=O)(=O)NCc2ccccn2)cc1NC(=O)c1ccccc1F	15.1
CCO[C@H]1OC(C(=O)N2CCN(C)CC2)=C[C@@H](c2ccc3c(c2)OCO3)[C@@H]1CCCO	3.93
O=C(O)CC(c1ccc(Cl)cc1)n1cccc1 (stereo not drawn)	5.89
COc1ccc(/C=C/C(=O)N(CC(C)C)C2CCS(=O)(=O)C2)cc1 (stereo not drawn)	1.7
O=C(N/N=C/c1ccc(O)cc1)c1cc(-c2ccccc2)nc2ccccc12	11.2
CCCCCC(=O)OC(CN1CCCCC1)CN1CCCC1=O.Cl (stereo not drawn)	5.42
COc1cc2ncnc(NCc3ccc(C)o3)c2cc1OC	-11.5
Cc1cc(C(=O)OCC(=O)N2CCOCC2)ccc1[N+](=O)[O-]	17.7
CC(C)(C)SCCNC(=O)COc1ccccc1	-0.00422
COc1ccc(C(=O)NNC(=S)NC(=O)c2cccnc2)cc1	2.49
CCN(CC)c1ccc(/C=N/NC(=O)OC(C)(C)C)cc1	-22.6
Cn1c(=O)c2c(nc(CN3CCN(Cc4ccccc4)CC3)n2CCN2CCOCC2)n(C)c1=O	-17.6
